# Experimental data published in publication PMC4336329 (PLoS ONE, 2015).
# The campaign covered roughly 310,000 compounds. About 14,000 (4.5%) showed an effect of 50% or more. Effects have a minus sign here. Some of the results follow.
# Target: human ether-à-go-go-related gene (hERG) potassium channel (human, UniProt Q12809)
# Assay: primary screen, population patch clamp on CHO cells stably expressing hERG
# 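Further: peak tail current of the secondary pulse compared with the same well before compound.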
# human ether-à-go-go-related gene (hERG) potassium channel, sequence (Q12809 whole entry, looked up): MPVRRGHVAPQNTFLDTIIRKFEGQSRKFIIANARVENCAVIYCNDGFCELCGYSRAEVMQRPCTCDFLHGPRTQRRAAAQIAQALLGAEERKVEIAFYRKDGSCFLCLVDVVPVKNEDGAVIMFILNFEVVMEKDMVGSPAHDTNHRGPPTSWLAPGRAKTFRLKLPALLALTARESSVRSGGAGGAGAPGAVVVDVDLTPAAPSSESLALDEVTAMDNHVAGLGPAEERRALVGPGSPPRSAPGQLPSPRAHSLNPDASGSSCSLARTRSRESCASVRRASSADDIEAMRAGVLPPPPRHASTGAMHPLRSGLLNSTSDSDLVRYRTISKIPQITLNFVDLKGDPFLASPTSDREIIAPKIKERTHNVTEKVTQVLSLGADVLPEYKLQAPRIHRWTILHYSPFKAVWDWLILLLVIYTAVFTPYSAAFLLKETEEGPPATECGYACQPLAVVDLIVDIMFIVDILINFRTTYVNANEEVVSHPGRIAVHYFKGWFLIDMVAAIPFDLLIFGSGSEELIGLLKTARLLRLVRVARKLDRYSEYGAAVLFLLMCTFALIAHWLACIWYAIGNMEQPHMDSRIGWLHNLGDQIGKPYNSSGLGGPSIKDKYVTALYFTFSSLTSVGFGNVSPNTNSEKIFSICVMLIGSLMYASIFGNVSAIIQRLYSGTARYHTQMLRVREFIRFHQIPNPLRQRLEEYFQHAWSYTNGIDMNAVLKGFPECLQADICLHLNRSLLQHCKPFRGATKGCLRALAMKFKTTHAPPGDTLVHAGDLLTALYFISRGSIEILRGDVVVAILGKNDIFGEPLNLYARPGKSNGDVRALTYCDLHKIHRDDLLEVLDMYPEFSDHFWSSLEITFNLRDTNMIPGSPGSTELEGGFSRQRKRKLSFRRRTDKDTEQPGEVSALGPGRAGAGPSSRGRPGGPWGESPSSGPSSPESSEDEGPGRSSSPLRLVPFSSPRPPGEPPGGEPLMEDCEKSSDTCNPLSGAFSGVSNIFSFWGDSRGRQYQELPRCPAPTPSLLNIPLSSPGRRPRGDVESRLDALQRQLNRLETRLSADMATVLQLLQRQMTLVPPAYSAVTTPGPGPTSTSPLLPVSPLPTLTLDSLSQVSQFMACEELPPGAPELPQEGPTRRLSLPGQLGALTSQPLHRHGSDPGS
row,SMILES,"hERG current change (%, negative = inhibition) at 10uM [%]"
1,O=C(NCCN1CCCCCC1)c1ccc(CS(=O)(=O)c2ccc(Br)cc2)o1,-57.4
2,CC1(C)Cc2c(ccc3ccccc23)C(=O)N1,4.89
3,CCCN(C(=O)CSc1n[nH]c(-c2ccc(OC)cc2)n1)c1c(N)n(Cc2ccccc2)c(=O)[nH]c1=O,12.1
4,CC(NC(=O)C1CCCO1)c1ccccc1 (stereo not shown),12.6
5,Cc1nn(-c2ccccc2)c2sc(-c3n[nH]c(=S)o3)cc12,16.1
6,O=C(CC(=O)Nc1cccnc1)Nc1cccnc1,13.4
7,CCCn1c(S(=O)(=O)O)nc2ccccc21,-0.963
8,COc1ccccc1CCNC(=O)c1ccc(OC)c(OC2CCN(C(C)C)CC2)c1,-46.3
9,COC(=O)c1cc(S(=O)(=O)NCc2ccc(S(N)(=O)=O)cc2)oc1C,3.94
10,CCCCCCCCNC(=O)c1ccc(C)cc1,10.9
11,O=C1CCc2cc(S(=O)(=O)Nc3ccc(F)cc3)ccc2N1,3.55
12,COc1ccc(NC(=O)C2C3C=CC4(O3)C2C(=O)N(CCCN2CCCCC2)C4C(=O)NC2CCCC(C)C2C)cc1 (stereo not shown),18
13,CC1CCN(C(=O)CSc2nnc(CN3CCOCC3)n2-c2ccccc2)CC1,6.47
14,COc1ccc(CNC(=O)CC2C(=O)NCCN2C2Cc3ccccc3C2)cc1 (stereo not shown),-28.5
15,COc1ccc(NC(=O)CN(C)C(=O)CCC(=O)c2ccc(C)cc2)cc1,-27.2
16,CCCC1O[C@@H]2CC3C4CCC5=CC(=O)C=C[C@]5(C)C4C(OC(C)=O)C[C@]3(C)[C@]2(C(=O)COC(C)=O)O1 (stereo partly shown),-23.1
17,O=C(N/N=C/c1cccc2ccccc12)c1n[nH]c2c1CCCC2,4.23
18,Cc1ccc(C(=O)Nc2sc(Cc3ccc4c(c3)OCO4)c(C)c2C(N)=O)cc1,-3.31
19,Cc1[nH]c2ccc3c(ncn3CCC#N)c2c1C,8.81
20,COc1ncccc1C(=O)N1CCCC(N2CCN(c3cccc(Cl)c3)CC2)C1 (stereo not shown),-10.7
21,CC(NC(=O)c1ccncc1)c1ccccc1 (stereo not shown),16.7
22,Nc1nc(Cl)cc(Oc2ccc([N+](=O)[O-])cc2)n1,8.95

row,SMILES,"hERG current change (%, negative = inhibition) at 10uM [%]"
1,Cc1ccc(NC(=O)C2CCCN(S(=O)(=O)c3c(C)noc3C)C2)nc1 (stereo not shown),-18.6
2,COc1cccc(C2(O)CCN(C(=O)C(C)C)CC2)c1,6.04
3,Cc1nnc(SCC(=O)c2cc(C)n(C3CC3)c2C)s1,-3.95
4,Cc1ccc(NC=C(S(=O)(=O)c2ccccc2)S(=O)(=O)c2ccccc2)cc1,7.86
5,Cn1ccnc1C(=O)c1ccc(N)cc1,22.4
6,Cc1ccc(-c2noc(CNC(=O)c3ccoc3C)n2)cc1,10.6
7,Cc1ccc(C(=O)C[n+]2cc(-c3ccc(C)cc3)n3c2CCCCC3)cc1.[Br-],-53.1
8,CCCc1cc(=O)[nH]c(SCC(=O)N2C(C)CCCC2C)n1 (stereo not shown),0.0814
9,COc1ccc(C(CNC(=O)Nc2ccc(Cl)cc2)N2CCN(C)CC2)cc1 (stereo not shown),-24.5
10,COc1cc(OC)cc(-c2n[nH]c(=S)n2-c2ccc3c(c2)OCO3)c1,15.4
11,COC(=O)c1ccc(C2NC(=O)NC(C)=C2C(=O)N(C)C)cc1 (stereo not shown),8.35
12,CCOC(=O)C1=C(C)NC2=C(C(=O)CCC2)C1c1ccc(N(C)C)cc1 (stereo not shown),0.4
13,CCCn1c(SCC(=O)NC2CCCC2)nnc1-c1ccccn1,11.7
14,Cc1ccc(C(=O)O)cc1S(=O)(=O)NCC1CCCO1 (stereo not shown),0.943
15,CC(C)Cn1c(N)c(C=O)c(=O)[nH]c1=O,9.57
16,O=C(Cn1ncn2c(cc3ccccc32)c1=O)NCCC1=CCCCC1,7.76
17,COc1ccccc1CNC(=O)COC(=O)c1ccc(C)s1,3.82
18,O=C(O)COc1ccc(Br)cc1C(c1c(C(=O)O)[nH]c2ccccc12)c1c(C(=O)O)[nH]c2ccccc12,29.3
19,COc1ccccc1N1C(=O)NC(=O)C(CCc2ccncc2)(CCc2ccncc2)C1=O,-46.6
20,CCOC(=O)c1c(C)c(C(=O)NCCCOC(C)C)c(C)n1C,-4.47
21,C/C(NC(=O)c1cccc(F)c1)=C1/C(=O)C[C@@H]2[C@H]1C2(C)C,12.1
22,O=C(c1ccc2c(c1)OCO2)C1CCCN(Cc2cn[nH]c2-c2cccc(F)c2)C1 (stereo not shown),-78.1

row,SMILES,"hERG current change (%, negative = inhibition) at 10uM [%]"
1,CCCCC(=O)N/N=C/c1c(O)n(CCc2ccc(OC)c(OC)c2)c(=O)[nH]c1=O,25.4
2,FC(F)(F)c1cc(C(F)(F)F)c2ccc(N3CCOCC3)nc2n1,7.41
3,CC1CCCN(Cc2nc3c(c(=O)n(C)c(=O)n3C)n2Cc2c(F)cccc2Cl)C1 (stereo not shown),-1.45
4,COc1cccc(-n2c(=O)c3c(C)c(C(=O)N(C)C)sc3n(CC(=O)NCCc3ccc(OC)c(OC)c3)c2=O)c1,15.3
5,Cc1ccc(S(=O)(=O)N2CCOCC2)cc1NC(=O)CSc1nnnn1C1CCCC1,-28.2
6,CCOc1ccc2oc(C(=O)NN3C(C)CCCC3C)c(C)c2c1 (stereo not shown),12.3
7,CCOC(=O)c1sc2nc(C(C)C)c3c(c2c1N)CCC3,-4.78
8,COc1ccc(NC(=O)CSc2cc(C)ccc2C)cn1,35.5
9,CN1CCN(S(=O)(=O)c2cccc(C(=O)Nc3cc(C(N)=O)cc(C(N)=O)c3)c2)CC1,4.71
10,Nc1nc(Cl)nc2c1ncn2[C@H]1C[C@H](O)[C@@H](CO)O1,7.6
11,CCCn1c(=O)[nH]c(=O)c2c1nc(-c1ccc(OC(F)F)cc1)n2CCN1CCOCC1,-21.6
12,CNC(=S)NCc1ccc2[nH]c(C)cc2c1,31.9
13,Br.O=C(Cn1c(NCCCO)nc2ccccc21)c1ccc(F)cc1,-9.54
14,CC(C)CNc1nc(N)c([N+](=O)[O-])c(NCc2ccccc2)n1,-3.8
15,CC(=O)Nc1ccc(N2C(=O)CC(Sc3nc4ccccc4s3)C2=O)cc1 (stereo not shown),13.7
16,COc1cccc(C2CC(c3cccc(OC)c3)n3nc(N)nc3N2)c1 (stereo not shown),-4.11
17,CC(=O)c1cccc(N(CC(=O)Nc2ccccc2F)S(C)(=O)=O)c1,20.7
18,CC(C)(C)NS(=O)(=O)c1ccc(OCC(=O)N2CCN(Cc3ccccc3)CC2)cc1,-3.78
19,O=C(O)c1ccc(OCc2occc2C(=O)O)cc1,5.18
20,COC(=O)C1C2C=CC3(CN(Cc4ccco4)C(=O)C13)O2 (stereo not shown),11.5
21,COc1cc(CNCc2ccc(SC)cc2)cc(OC)c1,-14.9
22,CCc1cc2c(=O)c(-c3nc4ccccc4[nH]3)coc2c(CN2CCCCC2)c1O,-21.6

row,SMILES,"hERG current change (%, negative = inhibition) at 10uM [%]"
1,COc1ccc(OC)c(-n2c(O)c(C=NCc3ccc4c(c3)OCO4)c(=O)[nH]c2=O)c1,-13
2,COc1ccc(S(=O)(=O)N2CCC(C(=O)NC3CCCC3)CC2)cc1C,7.14
3,CCCOc1ccc(NC(=O)c2cc3cc(C)ccc3[nH]2)cc1,16.8
4,Nc1ccccc1Nc1ccncc1[N+](=O)[O-],20
5,O=C(NN/C(=N/S(=O)(=O)c1ccc(Cl)cc1)c1ccccc1)c1cccc(Cl)c1,0.271
6,C[C@H]1CCC(=O)N([C@H](CSc2ccc(Br)cc2)Cc2ccccc2)CC1,7.31
7,CCCc1[nH]nc2c1C(CCc1ccccc1)C(C#N)=C(N)O2 (stereo not shown),-13.2
8,Cc1noc(C)c1COc1ccc(CC(=O)NCc2ccccc2)cc1,-3.71
9,COC(=O)c1ccc(N(C(=O)c2ccco2)C(C(=O)NC2CCCC2)c2ccco2)cc1 (stereo not shown),-16.6
10,CC(=O)O[C@@H]1[C@H](OC(=O)CC(C)C)c2c(ccc3ccc(=O)oc23)OC1(C)C,-67.2
11,COc1cc(Cl)c(S(=O)(=O)NCCCN2CCOCC2)cc1Cl,-4.68
12,CSc1ncc(C(=O)Nc2cccc(S(N)(=O)=O)c2)n1-c1ccccc1,30.7
13,Cc1ccc(-c2nnn(CC(=O)N(c3ccccc3F)C(C(=O)NCC3CCCO3)c3c[nH]c4ccccc34)n2)cc1 (stereo not shown),0.81
14,N#CC1=C(N)Oc2n[nH]c(-c3ccncc3)c2C1c1ccsc1 (stereo not shown),-14.6
15,O=C(NCc1cccnc1)C(=O)NCC1CCCO1 (stereo not shown),21.5
16,CCn1cc(CN2CCCC(C(=O)c3sccc3C)C2)cn1 (stereo not shown),-27.3
17,CC(=O)Nc1ccc(S(=O)(=O)Nc2cc(C)cn(Cc3ccc(C)cc3)c2=O)cc1,2.09
18,O=C(O)c1cc2c(o1)CCC/C2=N\O,15.6
19,CC1(C)CN(c2ccc(-c3ccnc4ncnn34)cc2)C1=O,13.6
20,CCN(C(=O)CSc1nc2cc(C(F)(F)F)ccc2n1Cc1ccccc1)C1CCS(=O)(=O)C1 (stereo not shown),-31.7
21,CCOc1cc(C(=O)NCCOC)ccc1OC,1.01
22,COc1ccc(CNCC(O)(c2ccccc2)c2ccc(F)cc2)cc1 (stereo not shown),-73.3
